In experiment [1] the target is Full-length human BMAL1 with an N-terminal Strep tag (human) (UniProt O00327). Kind of experiment: mass photometry; purified BMAL1-HIF2α sample at 20 nM; 20 mM Tris-HCl pH 8.0, 100 mM KCl, 0.5 mM TCEP; Refeyn OneMP; both purified.
Experiment [2] has the same target. The experiment is described as follows: co-elution on heparin chromatography; HIF2α and BMAL1 co-expressed in insect cells, both Strep-tagged; Strep-Tactin affinity (1 M NaCl wash, elution at 200 mM NaCl with 5 mM desthiobiotin), then heparin column with a linear salt gradient; fractions read by SDS-PAGE; both purified.
For the next experiment, the target named is BMAL1-FLAG (UniProt O00327). Kind of experiment: co-IP; 786O cells transfected with FLAG-tagged bHLH-PAS proteins; RIPA lysates, anti-Flag M2 agarose beads; endogenous HIF2α and CLOCK detected by immunoblot; cells at 3% O2 for 4 h or 21% O2 before lysis. (In general: A western blot detects proteins with antibodies after separation by electrophoresis.)

Protein sequences, listed by entry. Tags and fused reporters are not part of them.
UniProt O00327: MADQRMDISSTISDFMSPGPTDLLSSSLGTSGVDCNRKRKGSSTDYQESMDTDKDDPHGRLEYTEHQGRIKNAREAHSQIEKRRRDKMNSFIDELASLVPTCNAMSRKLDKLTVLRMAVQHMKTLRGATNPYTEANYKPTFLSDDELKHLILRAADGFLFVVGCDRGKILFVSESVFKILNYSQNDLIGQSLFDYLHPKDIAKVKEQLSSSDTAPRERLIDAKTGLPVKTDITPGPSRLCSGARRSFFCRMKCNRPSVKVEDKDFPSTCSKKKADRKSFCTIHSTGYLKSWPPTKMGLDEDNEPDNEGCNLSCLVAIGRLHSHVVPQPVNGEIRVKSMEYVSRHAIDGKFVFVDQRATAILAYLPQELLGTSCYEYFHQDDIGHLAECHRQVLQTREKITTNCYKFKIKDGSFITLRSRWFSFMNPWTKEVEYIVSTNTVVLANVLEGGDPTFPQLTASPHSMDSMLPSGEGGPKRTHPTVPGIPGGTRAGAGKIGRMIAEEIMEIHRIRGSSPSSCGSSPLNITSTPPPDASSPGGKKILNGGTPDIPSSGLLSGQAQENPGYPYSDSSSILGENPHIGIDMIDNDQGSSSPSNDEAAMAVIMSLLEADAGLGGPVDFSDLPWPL
UniProt Q99814: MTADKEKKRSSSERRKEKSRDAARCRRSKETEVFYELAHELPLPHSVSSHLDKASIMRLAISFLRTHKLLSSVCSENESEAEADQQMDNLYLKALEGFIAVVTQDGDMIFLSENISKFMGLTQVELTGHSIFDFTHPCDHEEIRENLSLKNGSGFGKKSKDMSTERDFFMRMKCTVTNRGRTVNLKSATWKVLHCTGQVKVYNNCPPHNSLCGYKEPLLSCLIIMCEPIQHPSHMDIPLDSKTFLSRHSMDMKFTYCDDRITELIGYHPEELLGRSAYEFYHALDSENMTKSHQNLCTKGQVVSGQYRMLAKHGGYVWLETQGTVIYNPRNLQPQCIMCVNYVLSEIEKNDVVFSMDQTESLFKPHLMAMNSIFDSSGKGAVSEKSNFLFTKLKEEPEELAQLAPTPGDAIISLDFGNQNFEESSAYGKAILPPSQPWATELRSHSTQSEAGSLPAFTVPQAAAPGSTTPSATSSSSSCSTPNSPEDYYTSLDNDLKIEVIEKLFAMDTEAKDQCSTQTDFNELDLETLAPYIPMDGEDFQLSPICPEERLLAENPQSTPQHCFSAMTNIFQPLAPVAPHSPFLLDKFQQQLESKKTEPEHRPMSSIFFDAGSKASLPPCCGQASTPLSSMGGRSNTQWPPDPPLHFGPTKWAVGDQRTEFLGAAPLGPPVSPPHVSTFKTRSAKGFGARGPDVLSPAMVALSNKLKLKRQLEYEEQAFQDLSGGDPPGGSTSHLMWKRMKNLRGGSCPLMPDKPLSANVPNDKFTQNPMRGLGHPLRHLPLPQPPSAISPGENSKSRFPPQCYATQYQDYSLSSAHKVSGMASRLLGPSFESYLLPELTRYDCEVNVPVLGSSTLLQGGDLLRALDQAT

Results are given in words; binding and its absence hold for the method and conditions named. For part of these data: In cells and extracts the contact can be indirect. Some results given as binding are weak or reduced against the parent protein; the word gives no strength.

Take “Full-length human HIF2α with an N-terminal Strep tag (from UniProt Q99814 1-870)”: the binding entry in experiment [1] and in experiment [2] was “binds” in each case. Regarding “endogenous wild-type HIF2α (786O cells) (from UniProt Q99814 1-870)”, the binding result with BMAL1-FLAG is listed as “binds”.

The values above are taken from paper PMC12215836.
